Molecular target: 人单核细胞白血病细胞(THP-1)表面LILRB4 (human, UniProt Q8NHJ6 22-448)
Assay: cell-based or functional assay

IC50, inhibition of ARG1 secretion by THP-1 cells in the presence of ApoE (arginase activity kit): 30.6 µg/mL
B1: 人源化抗LILRB4单克隆抗体HB-Ⅲ (human IgG1/Cκ) (antibody)
heavy: QVQLVQSGAEVKKPGASVKVSCKASGYTFTNYWMHWVRQAPGQGLEWIGEINPSNGRTNYNEKFKTRATLTVDTSTSTAYMELSSLRSEDTAVYYCARWGQLGLREGYYAVDYWGQGTLVTVSSASTKGPSVFPLAPSSKSTSGGTAALGCLVKDYFPEPVTVSWNSGALTSGVHTFPAVLQSSGLYSLSSVVTVPSSSLGTQTYICNVNHKPSNTKVDKRV[skipping human IgG1 Fc with changes]
light: DIVMTQSPSSLSASVGDRVTITCRASQDISNYLNWYQQKPGGAVKLLIYYTSRLHSGVPSRFSGSGSGTDYTFTISSLQPEDIATYFCQQGNTLPPTFGGGTKVEIKRTVAAPSVFIFPPSDEQLKSGTASVVCLLNNFYPREAKVQWKVDNALQSGNSQESVTEQDSKDSTYSLSSTLTLSKADYEKHKVYACEVTHQGLSSPVTKSFNRGEC

Reference: CN116203146A (BEIJING DONGFANG BIOTECH CO LTD, dated 2023)
